The text below walks through data of PubChem BioAssay AID1508624 (National Center for Advancing Translational Sciences (NCATS), 2021).

About 120 (0.25%) of roughly 48,000 compounds were called active. Inconclusive results (about 4%) are left out. Calls come from the whole dose curve; as a rule, active = well fitted activation curve with a large enough effect; inconclusive = small, poorly fitted or top-dose-only effect, or another doubt; inactive = no such curve, though single readings can be large or run the other way. The list shows a part of the results.

This test in a line: Primary qHTS for Identification of Small Molecule Activators of Huntingtin-Antisense Promoter Activity. Note: nearly all actives have a fitted effect of over 55% in size. As to conditions: HEK293 HTT-AS promoter firefly luciferase reporter (activity 0% = vehicle and -100% = no light), 24 h; series mostly up to 57.5 µM; activity change, positive = activation: at the top concentration. A digest of the protocol:
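HEK293 luciferase promoter-reporter cells (2,500/well) plated 24 h, then compounds added at up to 57.5 uM final for 24 h at 37 °C. Firefly luminescence by Dual-Glo, normalized to vehicle (0%) and zero RLU (-100%).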
In general terms: Quantitative high-throughput screening tests each substance at several concentrations.
Take `CCOCCCN(Cc1ccco1)C(=O)c1cc2c(s1)-c1c(C)cccc1OC2`: the “activity change, positive = activation” value is inactive: -31.1%.

Consider `COc1ccc(C(=O)c2cn(CC(=O)Nc3cc(C)ccc3C)c3nc(C)ccc3c2=O)cc1`, for which the “activity change, positive = activation” value is inactive: -4.24%.

In the case of `CC(C)Oc1ccc(CNC(=O)C2=Cc3ccccc3OC2)cc1`, the “activity change, positive = activation” value is inactive: -0.637%.

`NC(=O)C1CCN(c2csc3ccc(F)cc3c2=O)CC1`: the “activity change, positive = activation” value is inactive: 9.64%.

Turning to `CCn1c(CN2CCN(C)CC2)nc2cc(NC(=O)c3ccc([N+](=O)[O-])cc3)ccc21`, the “activity change, positive = activation” value was inactive: 0.934%.

Turning to `COc1ccc(N2CCN(C(CNC(=O)c3ccc(OC)c(OC)c3)c3cccnc3)CC2)cc1` (stereo not drawn), the “activity change, positive = activation” value was inactive: -14.6%.

Consider `CCc1ccc(OCC(=O)N(Cc2ccc(C(C)C)cc2)C2CCS(=O)(=O)C2)cc1` (stereo not drawn), for which the “activity change, positive = activation” value was inactive: -22.2%.

As for `Cc1ccc(-c2noc(CNC(=O)c3ccc(C)c(Cl)c3)n2)cc1`, the “activity change, positive = activation” value was inactive: -10.6%.

On to `NC(=O)N1c2ccccc2C=Cc2ccccc21`, for which the “activity change, positive = activation” value was inactive: -5.75%.

As for `C[C@]12CC[C@@H]3c4ccc(O)cc4CC[C@H]3[C@H]1C[C@@H](O)[C@H]2O`, the “activity change, positive = activation” value is inactive: -27.6%.

For `CCN(CC)C(=O)C1=C(C)Nc2nc3ccccc3n2C1c1cccc(OC)c1` (stereo not drawn), the “activity change, positive = activation” value was inactive: -21%.

For `O=C(Nc1ccccc1C(F)(F)F)c1ccc(F)c(S(=O)(=O)N2CCc3ccccc3C2)c1`, the “activity change, positive = activation” value was inactive: -24.3%.

Turning to `O=C(NCc1ccccc1Cl)c1nnc(Cc2cccc(F)c2)o1`, the “activity change, positive = activation” value is inactive: -16%.

On to `Cc1ccc2c(CC(=O)N(Cc3ccc(N(C)C)cc3)Cc3ccco3)coc2c1C`, for which the “activity change, positive = activation” value is inactive: -6.02%.

Regarding `Cc1ccc2oc(-c3ccc(C)c(NC(=O)/C=C/c4ccco4)c3)nc2c1`, the “activity change, positive = activation” value is inactive: -29.8%.

For `Cc1ccc(CNC(=O)Cn2ccn(-c3cccc(Cl)c3)c(=O)c2=O)cc1`, the “activity change, positive = activation” value is inactive: -0.592%.

As for `COc1cccc(-c2cc(C(F)(F)F)n3ncc(C(=O)OC(C)C)c3n2)c1`, the “activity change, positive = activation” value was inactive: -11.2%.

With `COc1ccc(N(Cc2cc3ccccc3[nH]c2=O)C(=O)c2cccc(Cl)c2)cc1`, the “activity change, positive = activation” value is inactive: 2.95%.

With `CC(=O)N1c2ccccc2CC1C(=O)N1CCN(c2ccccc2)CC1` (stereo not drawn), the “activity change, positive = activation” value is inactive: -6.48%.

Consider `Cc1ccc(NC(=O)c2c(C)cc(C)nc2SCC(=O)Nc2ccc(Br)cc2)cc1`, for which the “activity change, positive = activation” value is inactive: -26.7%.

With `CCc1nc2ccc(C(=O)NCCc3ccccc3OC)cc2nc1CC`, the “activity change, positive = activation” value is inactive: -21.1%.

On to `CCCCN1CC(c2nc3ccccc3n2CCCCOc2cc(C)ccc2C)CC1=O` (stereo not drawn), for which the “activity change, positive = activation” value was inactive: -47.1%.

Turning to `O=C(CS(=O)(=O)c1cccc2nsnc12)Nc1ccccc1Cl`, the “activity change, positive = activation” value is inactive: -10.6%.

As for `CN(C(=O)CCc1nc(-c2ccccc2F)no1)c1ccc(Cl)cc1`, the “activity change, positive = activation” value is inactive: -18.5%.

Turning to `O=S(=O)(c1ccc(OC(F)(F)F)cc1)N1CCC(c2nnnn2-c2ccc(F)cc2)CC1`, the “activity change, positive = activation” value is inactive: -15.1%.

On to `Cc1ccc(NC(=O)c2nc(S(C)(=O)=O)ncc2N(Cc2ccc(C(C)(C)C)cc2)Cc2ccco2)cc1C`, for which the “activity change, positive = activation” value is inactive: -15.2%.

As for `COc1cc(C(=O)NCC(c2ccc3c(c2)OCO3)N2CCOCC2)cc(OC)c1OC` (stereo not drawn), the “activity change, positive = activation” value is inactive: -7.27%.

As to `CCCC(O)c1nc2ccccc2n1CCCOc1ccc(Cl)cc1` (stereo not drawn), the “activity change, positive = activation” value is inactive: -38.9%.

As to `CCc1cccc(NC(=O)C2CCCN(c3ncnc4onc(-c5ccc(F)cc5)c34)C2)c1` (stereo not drawn), the “activity change, positive = activation” value was inactive: -29.7%.

Take `CCN1CCSc2ccc(C(=O)NCc3ccc(OC(C)C)cc3)cc21`: the “activity change, positive = activation” value is inactive: -9.35%.

Turning to `CCn1cc(C(=O)OCC(=O)Nc2ccc(C)c(Cl)c2)c(=O)c2ccc(C)nc21`, the “activity change, positive = activation” value was inactive: -2.11%.

With `COc1ccc(-c2noc(CSCC(=O)Nc3cc(OC)c(OC)c(OC)c3)n2)cc1OC`, the “activity change, positive = activation” value is inactive: 0.105%.

Turning to `CCOc1ccc(-c2cc3c(=O)n(CC(=O)NCc4ccc(C)cc4)ccn3n2)cc1`, the “activity change, positive = activation” value is inactive: 27.3%.

Regarding `Cc1cccc(C(=O)OCc2cc(=O)n3ccsc3n2)c1`, the “activity change, positive = activation” value is inactive: 27.3%.

Take `COc1ccc(Cn2ccc3nc(C)c(C(=O)Nc4ccc(OC)cc4)cc3c2=O)cc1`: the “activity change, positive = activation” value was inactive: -9.3%.

For the compound `COc1ccc(CNC(=O)C2CCN(S(=O)(=O)c3c(C)noc3/C=C/c3ccccc3F)CC2)cc1`, the “activity change, positive = activation” value is inactive: -2.07%.

`CC(=O)Nc1nc2n(n1)C(c1ccc(F)cc1)C=C(c1ccc(Cl)cc1)N2` (stereo not drawn): the “activity change, positive = activation” value was inactive: -17.9%.

As for `CC(C(=O)NCCSCc1cccc(Cl)c1)N(c1ccccc1)S(C)(=O)=O` (stereo not drawn), the “activity change, positive = activation” value is inactive: -32.5%.

Consider `COc1ccc(CCNC(=O)CCn2c(=O)c3ccccc3n(Cc3ccccc3F)c2=O)cc1OC`, for which the “activity change, positive = activation” value is inactive: -25.1%.

In the case of `O=c1cc(-c2ccc(O)cc2)oc2cc(O)cc(O)c12`, the “activity change, positive = activation” value is inactive: 18.5%.

On to `Cc1cccc(OCC(=O)Nc2cccc(OCc3cc(=O)n4cccc(C)c4n3)c2)c1`, for which the “activity change, positive = activation” value was inactive: 0.789%.

In the case of `Cc1cc2nc(-c3cccc(NC(=O)c4cccc5ccccc45)c3)oc2cc1C`, the “activity change, positive = activation” value was inactive: 5.38%.

Consider `CCOc1ccc(N2CC(NC(=O)c3ccco3)CC2=O)cc1` (stereo not drawn), for which the “activity change, positive = activation” value was inactive: -4.55%.

Consider `CC1CCCN(C(=O)c2cc3ccc4cccnc4c3[nH]2)C1` (stereo not drawn), for which the “activity change, positive = activation” value was inactive: -57.1%.

Regarding `Cc1cc(C)c(NC(=O)Cn2c(=O)c3cccn3c3ccccc32)c(C)c1`, the “activity change, positive = activation” value is inactive: -7.66%.

Take `COc1cccc(-n2ccnc2SCC(=O)Nc2c(C)cc(C)cc2C)c1`: the “activity change, positive = activation” value is inactive: -14.5%.

Take `CCCCNC(=O)c1ccc2c(c1)N(Cc1ccc(F)cc1)C(=O)c1ccccc1S2=O` (stereo not drawn): the “activity change, positive = activation” value was inactive: -25.4%.

For the compound `CCOCCCNC(=O)c1ccc(-n2c(-c3ccccc3)cc3c2CCCC3)cc1`, the “activity change, positive = activation” value was inactive: 5.98%.
